Measurements published in publication PMC4336329 (PLoS ONE, 2015).
Hit rate of the full screen: of about 310,000 compounds, about 14,000 (4.5%) showed an effect of 50% or more. The effect is printed as a negative number. The list shows a part of the results.

molecular target: human ether-à-go-go-related gene (hERG) potassium channel (human, UniProt Q12809); test: primary screen, population patch clamp on CHO cells stably expressing hERG
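Also: peak tail current of the secondary pulse compared with the same well before compound.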

Chain of human ether-à-go-go-related gene (hERG) potassium channel (Q12809 whole entry, looked up): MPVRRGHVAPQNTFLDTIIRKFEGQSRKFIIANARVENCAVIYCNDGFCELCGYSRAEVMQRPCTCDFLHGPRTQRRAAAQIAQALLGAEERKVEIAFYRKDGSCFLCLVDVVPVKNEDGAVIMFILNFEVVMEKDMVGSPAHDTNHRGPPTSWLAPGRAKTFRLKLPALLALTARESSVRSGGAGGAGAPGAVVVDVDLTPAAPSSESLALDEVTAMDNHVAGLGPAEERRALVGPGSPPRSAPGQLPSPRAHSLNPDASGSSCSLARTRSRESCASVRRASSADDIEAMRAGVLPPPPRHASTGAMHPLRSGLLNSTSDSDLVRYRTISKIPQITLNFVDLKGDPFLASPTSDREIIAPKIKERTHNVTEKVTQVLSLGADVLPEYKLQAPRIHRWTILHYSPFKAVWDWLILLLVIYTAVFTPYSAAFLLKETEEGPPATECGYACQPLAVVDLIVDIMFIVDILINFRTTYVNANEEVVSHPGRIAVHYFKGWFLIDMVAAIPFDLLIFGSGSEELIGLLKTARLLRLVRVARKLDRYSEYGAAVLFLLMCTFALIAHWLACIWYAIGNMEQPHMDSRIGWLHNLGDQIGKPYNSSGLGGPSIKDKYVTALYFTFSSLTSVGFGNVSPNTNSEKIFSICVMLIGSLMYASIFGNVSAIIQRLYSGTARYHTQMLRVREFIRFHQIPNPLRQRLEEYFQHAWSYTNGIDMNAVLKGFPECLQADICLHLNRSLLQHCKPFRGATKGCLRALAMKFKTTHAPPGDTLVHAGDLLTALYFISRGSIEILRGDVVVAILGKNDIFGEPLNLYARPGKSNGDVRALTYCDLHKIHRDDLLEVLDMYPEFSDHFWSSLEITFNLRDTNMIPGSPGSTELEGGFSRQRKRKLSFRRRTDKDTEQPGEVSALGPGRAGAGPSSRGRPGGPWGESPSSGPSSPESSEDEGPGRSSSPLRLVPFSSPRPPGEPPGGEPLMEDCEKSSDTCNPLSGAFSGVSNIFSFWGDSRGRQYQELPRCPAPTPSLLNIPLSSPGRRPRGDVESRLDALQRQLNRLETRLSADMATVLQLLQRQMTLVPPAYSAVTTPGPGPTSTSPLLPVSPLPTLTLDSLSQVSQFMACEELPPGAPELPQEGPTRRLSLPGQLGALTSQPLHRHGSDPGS

Row | SMILES | hERG current change (%, negative = inhibition) at 10uM
1 | O=C(CCC(=O)N/N=C/c1ccc(Br)s1)NCc1ccccc1 | 5.19%
2 | O=C1CC(c2cc([N+](=O)[O-])ccc2Cl)c2c(ccc3ccccc23)N1 (stereo not drawn) | -42.3%
3 | O=C1ON=C(c2ccc(Cl)cc2)/C1=C/c1ccc(O)cc1 | 16.1%
4 | O=c1[nH]c(=O)n(Cc2ccc(Oc3ccccc3)cc2)cc1Br | -1.61%
5 | Cc1c(N=Cc2c(O)n(C)c(=O)[nH]c2=O)c(=O)n(-c2ccccc2)n1C | 11%
6 | CCCC(=O)N1CCCC(C(=O)c2ccc(OC)c(OC)c2)C1 (stereo not drawn) | 12.7%
7 | COC(=O)C1=C(C)N(Cc2ccccc2)C(=NCCCCO)N[C@H]1CCc1ccccc1 | -43.3%
8 | c1ccc2c(Cn3nnc4ccccc43)cccc2c1 | 2.08%
9 | O=C(CN1CCCCC1)Nc1cccc(Oc2ccccc2)c1 | -50.7%
10 | CC(C)[C@H](Nc1ccc(S(=O)(=O)N2CCOCC2)cc1[N+](=O)[O-])C(=O)OCC(N)=O | 4.33%
11 | Cc1cc(-c2ccc([N+](=O)[O-])cc2)nc2ccccc12.Cl | 9.23%
12 | CC/C(=N/NC(=O)c1ccc(Br)o1)c1ccc(Cl)cc1 | 7.8%
13 | Cc1onc(-c2ccccc2)c1C(=O)Nc1ccc(N2CCOCC2)cc1 | 4.4%
14 | CC(C)N=C(Nc1ccc(Cl)cc1)c1cccnc1 | 0.664%
15 | COc1ccc(CNC(=O)CN(Cc2ccco2)C(=O)CCC(=O)Nc2ccccn2)cc1 | -43.2%
16 | CCn1cc(C(=O)O)c(=O)c2cc(F)c(N/N=C/c3ccccc3)cc21 | -27.2%
17 | O=C(O)C(=O)O.c1ccc(Cc2ccc(OCCCNC3CCCC3)cc2)cc1 | -58.9%
18 | CCC(CO)NC1=CC(=O)CCC1 (stereo not drawn) | 9.74%
19 | Cc1cccc(C(=O)NC2CCN(CC(=O)NCc3cccs3)CC2)c1 | -39.3%
20 | COc1ccc(N2CC(C(=O)NC3CCCCC3)CC2=O)cc1 (stereo not drawn) | 5.46%
21 | O=C(C1CCCCC1)N1CCC(CO)(Cc2ccccc2Cl)CC1 | -15.3%
22 | COc1ccc(C(=O)NNC(=O)CSc2nc3c(c(=O)n(C)c(=O)n3C)n2C)cc1 | -2.04%

Row | SMILES | hERG current change (%, negative = inhibition) at 10uM
23 | Cc1ccc(OCc2cc(C(=O)NCCn3cccn3)no2)cc1C | -3.81%
24 | COc1ccc(CCNC(=O)CCCCCNc2nc(=S)[nH]c3ccccc23)cc1OC | -31%
25 | COc1ccccc1OCCC(=O)OCC(=O)Nc1ccc(Br)cc1 | -2.01%
26 | O=C(Nc1ccc(S(=O)(=O)N2CCCCCC2)cc1)c1ccco1 | -72.5%
27 | COc1cc(NC(=O)c2cccc([N+](=O)[O-])c2)ccc1NC(=O)c1ccco1 | -17.8%
28 | CCOc1ccc(N(CC(=O)NC2CCCCC2)C(=O)CCC(=O)Nc2ccccn2)cc1 | -23.3%
29 | NS(=O)(=O)c1ccc(CCNC(=O)CNS(=O)(=O)c2cccc(Br)c2)cc1 | 13.2%
30 | COc1ccc(Br)cc1CN1CCN(Cc2c[nH]c3ccccc23)CC1.O=C(O)C(=O)O | -29.2%
31 | Cc1cc(N2CCCCC2)nc(N2CCOCC2)n1 | -15.2%
32 | COC(=O)[C@H](CC(C)C)NCc1cccc(CN[C@@H](CC(C)C)C(=O)OC)c1 | -10.4%
33 | CCC(=O)N1c2ccccc2NC2=C(C(=O)CCC2)C1c1cccnc1 (stereo not drawn) | 13%
34 | Cc1cccc(OCc2nnc(SCC(=O)O)n2-c2ccccc2)c1 | 7.17%
35 | Nc1nc2ccc(C(=O)Nc3ccccc3)cc2s1 | 7.6%
36 | CC(Oc1ccc(Cl)cc1)C(=O)N(C)CC(=O)Nc1ccc(N2CCOCC2)cc1 (stereo not drawn) | 5.8%
37 | CC(=O)O[C@]1(C(C)=O)CCC2C3CCC4=C/C(=N/OCC(=O)O)CC[C@]4(C)C3CC[C@@]21C (stereo partly drawn) | 14.7%
38 | O=C(NC(=S)Nc1ccccc1Cl)c1cncc(C#Cc2ccccc2)c1 | 12.8%
39 | Cc1ccc(NC(=O)CSc2nnc(-c3ccccn3)n2N)cc1F | -48.5%
40 | COc1cccc(NC(=O)CSc2nc3ccccc3c(=O)n2C)c1 | -7.76%
41 | Cc1n[nH]c(C)c1S(=O)(=O)N1CCCC(C(=O)N2CCN(c3ccc(Cl)cc3)CC2)C1 (stereo not drawn) | -75.1%
42 | CCOc1ccc(N(CC(=O)NC(C)C)C(=O)CCC(=O)Nc2ccccn2)cc1 | -3.32%
43 | CCCCC1CCC(c2nc(-c3cccnc3)no2)CC1 (stereo not drawn) | 3.51%
44 | CCCN1C2CCCC1CC(NC(=O)c1ccccc1OCC)C2 (stereo not drawn) | -47.2%

Row | SMILES | hERG current change (%, negative = inhibition) at 10uM
45 | CN(C)C(CNC(=O)c1ccco1)c1cccs1 (stereo not drawn) | 3.47%
46 | COc1ccc(-c2noc(CSc3nc4ccccc4c(=O)n3-c3ccccc3)n2)cc1OC | 8.69%
47 | COCCNc1oc(-c2ccco2)nc1S(=O)(=O)c1ccccc1 | 2.69%
48 | CC1C=CCC2C(=O)N(c3ccc(OC(=O)c4cccs4)cc3)C(=O)C12 (stereo not drawn) | 13.3%
49 | COc1ccc2nc(NC(=O)c3cccs3)sc2c1 | 8.71%
50 | COc1ccc(NC(=O)Cn2c(C)cc(=O)c3cccc(OC)c32)cc1 | 5.8%
51 | O=C(O)c1ccccc1C(=O)Nc1ccc(-c2csc(-c3ccccc3)n2)cc1 | 17%
52 | CCN1CCN(Cc2ccc(C)cc2)CC1 | -12.5%
53 | Cc1nnc(SCC(=O)N2c3ccccc3C(C)(c3ccccc3)CC2(C)C)s1 (stereo not drawn) | -18.1%
54 | O=C(Nc1ccccc1N1CCOCC1)c1cccc(F)c1 | 2.89%
55 | CCOC(=O)c1cnc2ccccc2c1Nc1ccc(C(=O)O)cc1.Cl | 17.9%
56 | O=C(CNS(=O)(=O)c1ccccc1)OCC(=O)c1ccc(Br)cc1 | 14.3%
57 | COCCn1c(SCC#N)nnc1-c1ccccc1O | -3.69%
58 | COC(=O)Cn1ncc2c(C)n(Cc3ccccc3)c(C)c2c1=O | -0.356%
59 | Cc1ccc(OCc2ccc(C(=O)NCC3CCCO3)cc2)cc1 (stereo not drawn) | 32.4%
60 | Cn1cc(C(=O)c2ccc(Cl)cc2Cl)cc1C(=O)N/N=C(\N)COc1cccc(C(F)(F)F)c1 | -4.61%
61 | O=C(NC1CCCCC1)C(c1cccnc1)N(C(=O)c1ccc(Cl)nc1)C1CCCCC1 (stereo not drawn) | 4.19%
62 | Cc1cccc(C)c1N(CC(=O)N1CCOCC1)S(C)(=O)=O | 18.6%
63 | Cc1cc(C)c(O)c(-c2n[nH]c3c2C(c2cccc(O)c2)N(Cc2ccco2)C3=O)c1 (stereo not drawn) | 6.53%
64 | C=C1CCN(c2ccc(C(=O)NCc3ccccc3)cc2[N+](=O)[O-])CC1 | -10.5%
65 | Cc1ccc(S(=O)(=O)c2nc(-c3ccccc3Cl)oc2N(C)C)cc1 | 4.66%
66 | COCCNC(=O)Nc1ccc2c(c1)N(C)C(=O)CS2 | 11.5%

Row | SMILES | hERG current change (%, negative = inhibition) at 10uM
67 | O=C(NCc1ccccc1Cl)c1ccc(CS(=O)(=O)c2ccccc2)o1 | -7.35%
68 | CN1OC2C(=O)N(c3ccccc3)C(=O)C2C1c1ccc(F)cc1 (stereo not drawn) | 5.57%
69 | CC(NC(=O)CCN1C(=O)c2ccccc2C1=O)c1ccc2c(c1)CCCC2 (stereo not drawn) | -16%
70 | Cc1cccc(N2CCN(C(=O)CCNS(=O)(=O)c3ccc4c(c3)oc(=O)n4C)CC2C)c1 (stereo not drawn) | -19.4%
71 | CS(=O)(=O)N1CCN(c2ccc(NC(=S)NC(=O)c3ccc4c(c3)OCO4)cc2)CC1 | 18.2%
72 | COc1ccccc1N(C)S(=O)(=O)c1ccc(Cl)c(C(=O)Nc2ccncc2)c1 | -73.4%
73 | CCOP(=O)(/C(C#N)=C(\C)O)c1ccccc1 (stereo not drawn) | 2.56%
74 | COc1cc(OC)c(OC)cc1CN1CCN(C(=O)c2cccc3ccccc23)CC1.O=C(O)C(=O)O | 4.94%
75 | COc1ccc(/C=C/c2nc3sc4c(c3c(=O)o2)CCC4)cc1 | 4.28%
76 | COCCN(CC(=O)Nc1cccc(C)c1)S(=O)(=O)c1ccc(S(=O)(=O)N2CCCC2)cc1 | -0.348%
77 | O=C1CC(O)(C(F)F)Oc2ccc3ccccc3c21 (stereo not drawn) | 1.87%
78 | Cn1cccc1/C=N/NC(=O)C(O)c1ccccc1 (stereo not drawn) | 8.94%
79 | CC(c1cccnc1)N(C(=O)Nc1ccccc1)C1CCCCC1 (stereo not drawn) | -19.6%
80 | O=C(CCN1C(=O)NC2(CCCC2)C1=O)Nc1cccc(S(=O)(=O)N2CCOCC2)c1 | 10.7%
81 | O=C(CSc1ccc(-c2ccncc2)nn1)c1ccccc1 | -5.29%
82 | CC(C)(C)[C@]1(O)C[C@@H]2OC(=O)C[C@@]23C(=O)O[C@@H]2OC(=O)[C@H](O)[C@]213 | 17.7%
83 | CCN(c1ccc(NC(=O)COC(=O)c2ccc(C)c(S(=O)(=O)N3CCOCC3)c2)cc1)C(C)C | 5.63%
84 | NCCCC[C@H]1CNC(=S)N1CCCCC1CCCCC1 | -10.6%
85 | COc1ccc(-c2nc(C#N)c(NCCCN(C)C)o2)cc1OC | -8.28%
86 | Cc1cc(C)cc(N(CC(=O)NCC2CCCO2)C(=O)CCC(=O)Nc2nccs2)c1 (stereo not drawn) | 12.8%
87 | CN1C(=O)c2ccccc2N(C)C1c1ccccc1Cl (stereo not drawn) | 1.65%
